The source of these data is PubChem BioAssay AID360 (National Center for Advancing Translational Sciences (NCATS), 2006).

About 550 (1.1%) of roughly 48,000 compounds were called active. Another 4% or so got no clear call; they are omitted. Cut-off read from the data, not from the text of the source: active = potency below about 15 µM; inconclusive = mostly about 16 µM to 33 µM; inactive = weaker than that. Some of the results follow.
Potency is the fitted concentration of half-maximal effect.

The target in the test is Lysosomal acid glucosylceramidase (Homo sapiens) (UniProt P04062). As to the kind of experiment: Glucocerebrosidase.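 Note: the screen sought inhibitors.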 The settings on record: purified enzyme, resorufin glucoside fluorescence (screen aimed at inhibitors), 20 min. The procedure, abridged: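 Wild-type enzyme at 0.2 nM final in 50mM citric acid/KH2PO4, 10mM sodium taurocholate, 0.01% tween-20, pH 5.9, with resorufin beta-D-glucopyranoside at 30 uM final. Compounds titrated, 20 min at RT, red fluorescence read; AC50 from titration.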
Sequence of UniProt P04062 (P04062 whole entry, looked up): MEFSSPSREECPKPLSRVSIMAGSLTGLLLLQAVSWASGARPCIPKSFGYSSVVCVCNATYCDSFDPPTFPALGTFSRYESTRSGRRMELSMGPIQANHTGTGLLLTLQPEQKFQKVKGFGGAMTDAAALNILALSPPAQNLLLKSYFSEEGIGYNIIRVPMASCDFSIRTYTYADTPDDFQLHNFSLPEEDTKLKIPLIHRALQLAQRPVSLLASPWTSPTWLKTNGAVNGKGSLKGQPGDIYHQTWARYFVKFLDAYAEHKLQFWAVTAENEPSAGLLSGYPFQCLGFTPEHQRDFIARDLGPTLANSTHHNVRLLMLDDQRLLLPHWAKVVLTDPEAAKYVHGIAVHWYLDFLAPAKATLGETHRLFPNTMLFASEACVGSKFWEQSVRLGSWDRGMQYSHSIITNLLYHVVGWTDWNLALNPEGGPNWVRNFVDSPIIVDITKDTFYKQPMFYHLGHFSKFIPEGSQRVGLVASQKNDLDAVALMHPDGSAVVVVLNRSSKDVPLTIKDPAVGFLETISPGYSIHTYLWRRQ
With `COc1cc(-c2nnc(SCC(=O)c3ccc(C)cc3)o2)cc(OC)c1OC`, the Potency entry is “inactive”.

Regarding `CCCn1nnc(NC(=O)c2ccc(OCC)c(Cl)c2)n1`, the Potency is inactive: > 76.9 µM.

As to `CN(C)S(=O)(=O)c1ccc(C(=O)OCc2ccc(C#N)cc2)cc1`, the Potency is inactive: > 76.9 µM.

Take `Cc1ccc(NC(=O)C2CCCNC2=O)nc1` (stereo unspecified): the Potency is inactive: > 76.9 µM.

For the molecule `CC(C#N)On1c(SC(C)C#N)nc2ccccc2c1=O` (stereo unspecified), the Potency was inactive: > 76.9 µM.

For the molecule `CS(=O)(=O)N1CCN(C(=O)NC23CC4CC(CC(C4)C2)C3)CC1`, the Potency was inactive: > 76.9 µM.

As to `Cc1cc(C)c(S(=O)(=O)Nc2ccc[nH]c2=O)c(C)c1`, the Potency is inactive: > 76.9 µM.

Consider `CCOc1ccccc1C(=O)N1CCN(c2cccc(Cl)c2)CC1`, for which the Potency is inactive: > 76.9 µM.

For `CCOC(=O)NCC(C#CCN(CC)CC)N(CC)CC` (stereo unspecified), the Potency is inactive: > 76.9 µM.

For the molecule `COCCN(CC(=O)NCc1ccccc1)C(=O)CCC(=O)Nc1ccccn1`, the Potency was inactive: > 76.9 µM.

For the molecule `Cc1nn2c(-c3ccc(Cl)cc3Cl)nnc2s1`, the Potency was inactive: > 76.9 µM.

Turning to `Cc1cc(NC(=O)CSC2=NCCS2)no1`, the Potency was inactive: > 76.9 µM.

Turning to `O=S(=O)(c1ccc(Br)s1)N1CCN(c2ccccn2)CC1`, the Potency is inactive: > 76.9 µM.

For `CC(C)N(C(=O)CSc1nnnn1C1CCCC1)C(C)C`, the Potency is inactive: > 76.9 µM.

As to `Cc1cccc(NC(=O)CCNS(=O)(=O)c2cccc3nsnc23)c1`, the Potency is inactive: > 76.9 µM.

As for `CCOc1ccc(C(=O)N2CCCC2C(=O)O)cc1` (stereo unspecified), the Potency is inactive: > 76.9 µM.

Turning to `CC1(C)C(=O)C2(CCCCC2)C(=O)OC1c1cccs1` (stereo unspecified), the Potency is inactive: > 76.9 µM.

As for `CCOC(=O)c1cc2c(ccn2C)n1CC(=O)N1CCN(c2ccc(F)cc2)CC1`, the Potency is inactive: > 76.9 µM.

Consider `CCCn1c(CNC(=O)c2ccccc2)nc2ccccc21`, for which the Potency was inactive: > 76.9 µM.

In the case of `CC(=O)c1cccc(NC(=O)CN(c2ccc(C)cc2)S(=O)(=O)c2cccc3nonc23)c1`, the Potency is inactive: > 15.4 µM.

As to `CC1CN(C(=O)c2cc(F)c(F)cc2Cl)CC(C)O1` (stereo unspecified), the Potency is inactive: > 76.9 µM.

As for `CC(=O)c1ccc(Nc2nc(C)nc3c2oc2ccccc23)cc1`, the Potency is inactive: > 76.9 µM.

For `CCCNC(=O)Cc1ncn[nH]1`, the Potency was inactive: > 76.9 µM.

As to `Cn1c(SCC(=O)NCc2ccc3c(c2)OCO3)nnc1-c1c[nH]c2ccccc12`, the Potency was inactive: > 76.9 µM.

Take `O=C(Nc1nc(-c2nc3ccccc3s2)cs1)c1ccc(S(=O)(=O)N2CCOCC2)cc1`: the Potency was inactive: > 76.9 µM.

Take `Cc1cc(C)c2c(c1)-c1cc(C)nn1C(c1ccc3c(c1)OCO3)N2` (stereo unspecified): the Potency is inactive: > 76.9 µM.

As for `Cc1cccc(-n2c(SCCC(=O)O)nnc2-c2cccs2)c1C`, the Potency was inactive: > 76.9 µM.

Regarding `Cc1sc2nc(SCC(=O)NCc3ccco3)n(CCc3ccccc3)c(=O)c2c1C`, the Potency is inactive: > 76.9 µM.

Consider `CCN1CCN(c2ncc(C(=O)N3CCCc4ccccc43)c3ccccc23)CC1`, for which the Potency was inactive: > 76.9 µM.

With `CCOC(=O)N1CCN(C(=O)CSc2nnc(-c3cccc(OC)c3)o2)CC1`, the Potency was inactive: > 76.9 µM.

`CCCN(CCC)CCCNC(=O)CS(=O)Cc1nc(-c2ccc(OC)c(OC)c2)oc1C` (stereo unspecified): the Potency is inactive: > 76.9 µM.

For `CCCC(=O)Nc1cc(OC)c(NC(=O)NC2CCCCC2)cc1OC`, the Potency was inactive: > 76.9 µM.

As for `Cc1noc(C)c1C(=O)NCCc1ccc(Cl)cc1`, the Potency was inactive: > 76.9 µM.

With `COc1ccc(N(Cc2cc3cc(OC)ccc3[nH]c2=O)C(=O)c2cccnc2)cc1`, the Potency was inactive: > 76.9 µM.

Take `CC1(C)OC(=O)C(C(c2ccccc2)C(C#N)C(N)=O)=C(O)O1` (stereo unspecified): the Potency was inactive: > 76.9 µM.

Consider `COc1ccc(C2(O)CCN(Cc3nnnn3Cc3ccc(C)cc3)CC2)cc1`, for which the Potency was inactive: > 76.9 µM.

Consider `COc1ccccc1-c1nnc2sc(-c3cnccn3)nn12`, for which the Potency is inactive: > 76.9 µM.

With `COC(=O)[C@H](Cc1ccccc1)NC(=O)NCC1CCCO1` (stereo partly specified), the Potency was inactive: > 76.9 µM.

Take `Cc1c(NS(=O)(=O)c2ccc3c(c2)c(=O)n(C)c(=O)n3C)c(=O)n(-c2ccccc2)n1C`: the Potency was inactive: > 76.9 µM.

As for `CCC(C)N1C(=O)C2C(C(=O)Nc3cccc(OC)c3)C3C=CC2(O3)C1C(=O)NC1CCCCC1C` (stereo unspecified), the Potency was inactive: > 76.9 µM.

With `CC(C)Nc1nc(N(c2ccccc2)c2ccccc2)nc(-n2ccnc2)n1`, the Potency is inactive: > 76.9 µM.

As to `COc1ccc(OCC(=O)Nc2cccc3cccnc23)cc1`, the Potency entry is “inactive”.

`CCOC(=O)c1cc(C(O)(C(F)(F)F)C(F)(F)F)c(/N=C/N(C)C)o1`: the Potency is inactive: > 76.9 µM.

Turning to `O=C(CN1CCN(Cc2ccccc2)C1=O)NCc1ccc(Cl)cc1`, the Potency is inactive: > 76.9 µM.

Turning to `COC(=O)c1ccc(C2C(C(C)=O)=C(O)C(=O)N2CCO)cc1` (stereo unspecified), the Potency was inactive: > 76.9 µM.

Consider `COC(=O)c1ccc(S(=O)(=O)N2CCCCCC2)cc1`, for which the Potency was inactive: > 76.9 µM.

As to `COc1ccc(C(=O)CSc2nnc(C3CCCCC3)n2N)c(OC)c1`, the Potency was inactive: > 76.9 µM.

For the molecule `CCCCN(CC)S(=O)(=O)c1ccc2c(c1)CCCN2C(C)=O`, the Potency was inactive: > 76.9 µM.

Take `O=C(Nn1cnnc1)c1cc2cc(Br)ccc2oc1=O`: the Potency is inactive: > 76.9 µM.

On to `Cc1nc2cc(C(=O)NCCN3CCOCC3)ccc2n1-c1ccc(F)cc1F`, for which the Potency entry was “inactive”.

Consider `CCN(CC)CCN1C(=O)C(=O)/C(=C(/O)c2c(C)[nH]c(C(=O)OC)c2C)C1c1ccccc1OC` (stereo unspecified), for which the Potency was inactive: > 76.9 µM.

As for `CCOC(=O)CSC1=C(C#N)C(c2ccco2)C(C(=O)Nc2cccc(C(F)(F)F)c2)=C(C)N1` (stereo unspecified), the Potency result was “inactive”.

Consider `O=C(Nc1ccccc1N1CCN(C(=O)c2ccccc2)CC1)c1ccc2c(c1)OCO2`, for which the Potency is inactive: > 76.9 µM.

For `CCC(=O)Nc1nonc1-c1nc2ccccc2n1Cc1ccc(Cl)c(Cl)c1`, the Potency is inactive: > 76.9 µM.

As for `C=CCn1c(SCC(=O)N2CCOCC2)nc2scc(-c3ccco3)c2c1=O`, the Potency is inactive: > 76.9 µM.

Regarding `Cc1occc1-c1nnc(SCC(=O)NCC2CCCO2)n1C` (stereo unspecified), the Potency is inactive: > 76.9 µM.

Regarding `CC(C)C(=O)NC(C)C(c1cccs1)N1CCN(c2ccccc2)CC1` (stereo unspecified), the Potency was inactive: > 76.9 µM.

`CSc1nc(-c2ccco2)cc(-c2ccccc2)c1C#N`: the Potency result is “inactive”.

For the molecule `COc1ccc(C(=O)Nc2ccccc2C(N)=O)cc1`, the Potency is inactive: > 76.9 µM.

As to `Cc1nc(NC(=O)C2CC2)sc1C(=O)N1CCCCC1`, the Potency is inactive: > 76.9 µM.

On to `Cc1nn(-c2ccc(Cl)cc2)c2sc(C(=O)N3CCN(C(=O)c4ccco4)CC3)cc12`, for which the Potency was inactive: > 76.9 µM.

`O=S1(=O)NC(=NC2CCCCCC2)c2ccccc21`: the Potency was inactive: > 76.9 µM.

Turning to `COc1ccc(C(OC(=O)c2ccco2)C(=O)NC2CCCCC2)cc1OC` (stereo unspecified), the Potency is inactive: > 76.9 µM.

Take `Cc1ccc(-n2c(SCC(=O)NCC3CCCO3)nnc2-c2ccoc2C)cc1` (stereo unspecified): the Potency was inactive: > 76.9 µM.

For `COc1ccccc1-c1ccc(=O)n(CC(=O)NC(C)(C)C)n1`, the Potency was inactive: > 76.9 µM.

Take `CCOC(=O)c1c(C)oc2ccc(OCC(=O)N(CC)CC)cc12`: the Potency is inactive: > 76.9 µM.

With `O=c1oc(-c2ccccc2)nc2c1cnn2-c1ccccc1`, the Potency is inactive: > 76.9 µM.

Take `CCOC(=O)N1CCN(C(=O)C2CCCN(S(=O)(=O)c3cc(C)ccc3OC)C2)CC1` (stereo unspecified): the Potency was inactive: > 76.9 µM.

Regarding `Nc1nc(NCc2cccs2)nn1-c1ccccc1`, the Potency was inactive: > 76.9 µM.

`CCOC(=O)N1CCN(C(=O)CCc2ccc(S(=O)(=O)NCCc3ccccc3)cc2)CC1`: the Potency was inactive: > 76.9 µM.

For the molecule `CCn1c(SCc2ccc(C#N)cc2)nnc1-c1cccc(Cl)c1`, the Potency is inactive: > 76.9 µM.

As for `Cc1nonc1NC(=O)OCCN1CCOC1=O`, the Potency is inactive: > 76.9 µM.

In the case of `O=C1CN(C(=O)COC(=O)c2ccccc2NC(=O)c2ccco2)c2ccccc2N1`, the Potency was inactive: > 76.9 µM.

Regarding `CS(=O)(=O)NCCSc1nnnn1-c1ccccc1`, the Potency is inactive: > 76.9 µM.

For the molecule `O=C(c1cccc(S(=O)(=O)N2CCCCC2)c1)N1CCOCC1`, the Potency was inactive: > 76.9 µM.

Regarding `COc1ccc(S(=O)(=O)N2CCC(C(=O)c3ccc4c(c3)OCCO4)CC2)cc1`, the Potency is inactive: > 76.9 µM.

With `CN(c1ccccc1C(=O)Nc1ccc2c(c1)OCCO2)S(C)(=O)=O`, the Potency was inactive: > 76.9 µM.

`O=C(Cn1cc(C(=S)N2CCOCC2)c2ccccc21)N1CCOCC1`: the Potency was inactive: > 76.9 µM.

Regarding `Nc1nc2c3ccccc3nc(C3CC3)n2n1`, the Potency is inactive: > 76.9 µM.

Consider `O=C(c1cn(CC(=O)N2CCCCC2)c2ccccc12)C1CC1`, for which the Potency was inactive: > 76.9 µM.

On to `Cn1c(C2CCCN2C(=O)OC(C)(C)C)n[nH]c1=S` (stereo unspecified), for which the Potency was inactive: > 76.9 µM.

On to `COc1cc2[nH]c3c(=O)n(CCN4CCCCC4)cnc3c2cc1OC`, for which the Potency is inactive: > 76.9 µM.

Turning to `Cc1cc(C(=O)Nc2ccccc2C(F)(F)F)no1`, the Potency was inactive: > 76.9 µM.

Regarding `Cc1ccc(NC(=O)c2cnn(-c3ccccc3)c2NC(=O)c2ccco2)cc1C`, the Potency is inactive: > 76.9 µM.

In the case of `Cc1cc(C)cc(NC(=O)N2CCC(c3nc4ccccc4o3)CC2)c1`, the Potency is inactive: > 76.9 µM.

As to `COc1ccc(C(=O)NCc2cccnc2)cc1S(=O)(=O)N1CCOCC1`, the Potency was inactive: > 76.9 µM.

As for `O=C(O)c1ccc(NCc2ccc3c(c2)OCO3)cc1`, the Potency was inactive: > 76.9 µM.

As to `O=C(Nc1ccc(NC(=O)C2CCCN2C(=O)OCc2ccccc2)cc1)c1ccco1` (stereo unspecified), the Potency result was “inactive”.

In the case of `Cc1[nH]c2ccccc2c1C(=O)CSc1ncn[nH]1`, the Potency was inactive: > 76.9 µM.

With `CCn1c(SCC(=O)N2CCCC2)nc2c1c(=O)n(C)c(=O)n2C`, the Potency was inactive: > 76.9 µM.

For the molecule `Cc1nn(C)cc1NC(=O)CCSc1nc(-c2ccco2)cc(C(F)(F)F)n1`, the Potency is inactive: > 76.9 µM.
